# Laboratory results: PubChem BioAssay AID488969 (Vanderbilt High Throughput Screening Facility, 2010)
# The full ranking holds about 110,000 compounds; the median of “z-score” is about -0.1, and the highest 2% start at about 2. Some of the results follow.
# Target: Metabotropic glutamate receptor 8 (Rattus norvegicus) (UniProt P70579)
# Assay: mGluR8 Gi/Go-coupled signaling modulation – cell-based, rat, thallium flux, HTS, primary screen (AID 488969)
# Conditions: HEK293 rat mGluR8, GIRK (G protein-gated inwardly rectifying potassium channel) thallium flux, FluoZin2; at 10 µM; stronger effect = higher value; submaximal glutamate (EC20) added with thallium
# UniProt P70579, sequence (P70579 whole entry, looked up): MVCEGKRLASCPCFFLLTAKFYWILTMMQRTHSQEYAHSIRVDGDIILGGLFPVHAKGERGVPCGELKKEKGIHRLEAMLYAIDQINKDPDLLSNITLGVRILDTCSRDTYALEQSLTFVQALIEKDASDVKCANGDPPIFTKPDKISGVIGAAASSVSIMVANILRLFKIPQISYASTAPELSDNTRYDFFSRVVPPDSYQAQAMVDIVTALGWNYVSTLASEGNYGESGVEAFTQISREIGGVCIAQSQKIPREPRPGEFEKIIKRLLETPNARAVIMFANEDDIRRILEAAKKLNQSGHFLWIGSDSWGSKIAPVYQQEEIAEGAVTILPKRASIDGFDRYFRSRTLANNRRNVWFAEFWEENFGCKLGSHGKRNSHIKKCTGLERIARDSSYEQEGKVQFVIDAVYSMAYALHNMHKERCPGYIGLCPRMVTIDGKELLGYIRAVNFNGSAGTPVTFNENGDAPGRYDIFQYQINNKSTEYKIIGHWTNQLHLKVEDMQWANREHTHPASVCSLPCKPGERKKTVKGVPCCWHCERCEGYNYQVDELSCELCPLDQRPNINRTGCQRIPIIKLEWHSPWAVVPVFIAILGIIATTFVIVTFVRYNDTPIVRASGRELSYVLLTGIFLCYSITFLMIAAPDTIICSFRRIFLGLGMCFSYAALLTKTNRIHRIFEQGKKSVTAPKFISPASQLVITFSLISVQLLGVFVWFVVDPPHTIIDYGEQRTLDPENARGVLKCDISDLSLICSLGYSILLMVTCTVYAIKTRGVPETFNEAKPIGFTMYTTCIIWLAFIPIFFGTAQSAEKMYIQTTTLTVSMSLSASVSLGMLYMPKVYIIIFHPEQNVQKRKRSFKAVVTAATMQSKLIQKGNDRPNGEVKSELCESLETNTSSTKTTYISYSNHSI
row,Compound,z-score
1,Cc1cccc(-c2nc(C#N)c(N3CCCCCC3)o2)c1,0.223
2,C/C=C/Cn1c(SCc2ccc(C)cc2)nc2c1c(=O)[nH]c(=O)n2C,-0.0511
3,COc1ccccc1OCc1ccc(C(=O)NC(C)(C)C)o1,-0.289
4,CCn1c(-c2ccc(C)cc2)nn(CC(=O)NCCc2ccccc2)c1=S,-0.272
5,Nc1ccc(C(=O)OCC(=O)NC2CCCc3ccccc32)cc1[N+](=O)[O-] (stereo not given),-0.347
6,COc1ccc(-n2nnnc2-c2ccccc2)cc1,0.0765
7,COc1ccc(-c2nc(CSCC(=O)NCC3CCCO3)c(C)o2)cc1OC (stereo not given),-0.231
8,Brc1cccc(OCCOCCn2ccnc2)c1,-0.0613
9,COc1ccc(C(CC(=O)O)NC(=O)c2ccco2)cc1 (stereo not given),-0.0992
10,CCOC(=O)/C(C#N)=C/c1cn(CCC(=O)O)nc1-c1ccccc1,-0.252
11,COC(=O)c1ccc(COc2ccc3c4c(c(=O)oc3c2)CCC4)o1,0.0799
12,O=C1CN(C(=O)COC(=O)CNC(=O)c2ccccc2)c2ccccc2N1,-0.585
13,CCC(Cc1ccccc1)NC(=O)C1CCN(S(=O)(=O)c2c(C)noc2C)CC1 (stereo not given),-0.318
14,COc1ccc(/C=N/N=C2/NC(=O)C(CC(=O)O)S2)cc1OCc1ccccc1Cl (stereo not given),-0.138
15,Cc1cc(C)nc(NCC(O)CNc2ccccc2C)n1 (stereo not given),0.0393
16,CCOC(=O)C(C(=O)N(C)C)c1ncc(C(F)(F)F)cc1Cl (stereo not given),0.00131
17,Cc1c(Br)cc(C(=O)N2CCCCCC2)c(C)c1C,-0.28
18,CCNc1ccc(Br)cc(C(=O)/C=C/c2ccccc2Cl)c1=O,0.225
19,COc1ccccc1CC(=O)Nc1ccccc1C(=O)O,-0.257
20,FC(F)(F)c1nnc2ccc(N3CCN(c4ccccc4)CC3)nn12,-0.0115
21,Cc1noc(C(=O)NCc2ccc(F)cc2)c1Cl,-0.2
22,COc1ccc(C2CC(c3cccs3)=NN2c2ccc(C=O)cc2)cc1 (stereo not given),0.0183
23,CCOC(=O)N1CCN(C(=O)CNS(=O)(=O)c2cccs2)CC1,0.68
24,CC(C)C[C@H](NS(=O)(=O)c1ccc(Br)cc1)C(=O)O,0.131
25,CCSc1nnc(NC(=O)CSc2nc3c(c(=O)n2CC)SC(C)C3)s1 (stereo not given),-0.0369
26,Cc1cc2nc(-c3ccc(SCC(=O)N4CCN(C(=O)c5ccco5)CC4)nc3)[nH]c2cc1C,0.00238
27,CCN(CC)S(=O)(=O)c1ccc(-c2nnc(SCC(=O)N3CCOCC3)o2)cc1,-0.522
28,CCC(=O)N=c1sc2c(OC)ccc(OC)c2n1C,-0.467

row,Compound,z-score
1,O=C(O)CSc1c[nH]c2ccccc12,-0.4
2,CCCCC(=O)Nc1cccc(NC(=O)c2ccc3c(c2)OCO3)c1,-0.0155
3,CC(C)C(c1nnnn1Cc1ccc(F)cc1)N1CCN(Cc2ccc3c(c2)OCO3)CC1 (stereo not given),0.13
4,COC(=O)C1=C(C)OC(N)=C(C#N)C1c1ccco1 (stereo not given),-0.186
5,O=C(COc1ccccc1N1C(=O)c2ccccc2C1=O)c1ccc(Cl)cc1,-0.197
6,COc1ccc(NC(=O)/C(Cl)=C(/Cl)S(=O)(=O)Cc2ccccc2)cn1,-0.481
7,CCn1nc(NC(=O)c2cccnc2)c2cc3ccccc3nc21,-0.87
8,CC1CCc2c(sc3ncnc(N4CCN(S(=O)(=O)c5cccc6nonc56)CC4)c23)C1 (stereo not given),0.835
9,O=C(Nc1cc(C(F)(F)F)ccc1N1CCCC1)c1cccnc1,0.0707
10,CC(NC(=O)/C(=C\c1cccc([N+](=O)[O-])c1)NC(=O)c1ccco1)C(=O)O (stereo not given),0.148
11,COc1cc(C)ccc1OCCOCCOc1ccc([N+](=O)[O-])cc1,-0.271
12,Fc1cc2nc(-c3ccncc3)[nH]c2cc1F,0.99
13,Cc1ccc(N2C(=O)NC(NC(=O)C(C)(C)C)(C(F)(F)F)C2=O)cc1 (stereo not given),-0.11
14,C/C(=N\Nc1cc(-c2ccccc2)nc(-c2ccccc2)n1)c1ccc(O)c(C)c1,-0.201
15,Cn1cnnc1SCC(=O)Nc1sc2c(c1C#N)CCCCC2,0.0796
16,Cc1ccc2c(c1)[nH]c1c(=O)n(CCCN3CCOCC3)cnc12,0.468
17,c1nnn(C23CC4CC(CC(C4)C2)C3)n1,1.14
18,O=C(NCc1ccccc1)c1ccc(OCC2CCCO2)cc1 (stereo not given),0.23
19,CCOc1ccccc1N(C)C(=O)C1CCN(S(=O)(=O)c2cccc3nonc23)CC1,0.778
20,C/C(Cn1nc([N+](=O)[O-])cc1C)=N\NC(=O)COc1c(Cl)cc(Cl)cc1Cl,0.0152
21,O=C(CCN1C(=O)C2C3C=CC(C3)C2C1=O)NCCc1ccccc1 (stereo not given),0.331
22,O=C(O)c1cnn(-c2ccccc2)c1-c1ccccc1,-0.548
23,COCC(=O)NC1CC2CCCC(C1)N2Cc1ccccc1 (stereo not given),-1.46
24,CCN(CC)c1ccc(NC(=O)COC(=O)C23CCC(=O)N2c2ccccc2S3)cc1 (stereo not given),-0.33
25,COc1ccc(C(O)C(CC(=O)NCCCOC(C)C)C(=O)NCCCOC(C)C)cc1OC (stereo not given),-0.266
26,Cc1nn(C(CC(=O)O)C(=O)O)c(C)c1Br (stereo not given),-0.194
27,CN(Cc1ccccc1)C(=O)COC(=O)c1ccc(Cl)c(N)c1,-0.11
